Measurements: the RNAGym collection of RNA variant scans (doi:10.1073/pnas.2313332121)
Variants at the background level are over-represented here.

B1: TPR 5TU (parent)
chain: GGAUCUUCUCGAUCUAACAAAAAAGACAAAUCUGCCACAAAGCUUGAGAGCAUCUUCGGAUGCAGAGGCGGCAGCCUUCGGUGGCGCGAUAGCGCCAACGUUCUCAACUAUGACACGCAAAACGCGUGCUCCGUUGAAUGGAGUUUAUCAUG

Variants of: B1
Test: polymerase ribozyme fitness, log enrichment relative to wild type (log ratio); higher = more active; in vitro selection for triplet polymerase activity
Method in brief: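 Each subunit of a heterodimeric triplet polymerase ribozyme was mutagenized into a library by PCR, transcribed, and subjected to one round of in vitro selection, run in triplicate. Libraries were annealed with a biotinylated primer, the partner subunit and triplets, incubated frozen at −7 °C, and extended constructs were gel-excised, captured on streptavidin beads and recovered by RT-PCR. Input and output libraries were sequenced on Illumina, keeping genotypes with ≥10 input reads and ≥1 read per output. Fitness is log base 2 of genotype enrichment divided by wild-type enrichment, from inverse-variance-weighted replicate averages.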

**Q.** Which “polymerase ribozyme fitness (log ratio)” value does the source give for GGAUCUUCUCGAUCUAACAAAAAAGACAAAUCUGCCACAAAGCUUCAGAGCAUCUUCGGAUGCAGGGGCGGUAGCCAUCGGUGGCGCGAUAACGCCAACAUUCUCAACUAUGACUUGCAGUACGCGUGCUCCGUUGAAUGGAGUUUAUCAUG here?
**A.** ≤ -4.2

**Q.** With GGAUCUUCUCGAUCUAACAAAAAAGACAAAUCUGCCACAAAGCUUAAGAGCAUCUUCGGAUGCAGAGGCGGCAGCCUUCGGCGGCGCGAUAACGCGAACGUUCUCAACUAUGACACGCAAAUCGUGUGCUCCGUUGAAUGGAGUUUAUCAUG as the variant, how does the “polymerase ribozyme fitness (log ratio)” value read?
**A.** ≤ -4.2

**Q.** With GGAUCUUCUCGAUCUAACAAAAAAGACAAAUCUGCCACAAAGCUUAAGAGCAUCUUCGGAUGCAGAGACGGCAGCCUUCGGUGGCGCGAUAGGGCUAACGUUCUCAACUAUGACACGCAAAACGCGUGCUCCGUUGAAUGGAGUUUAUCAUG as the variant, how does the “polymerase ribozyme fitness (log ratio)” value read?
**A.** ≤ -4.2

**Q.** For GGAUCUUCUCGAUCUAACAAAAAAGACAAAUCUGCCACAAAGCUUAAGAGCAUCUUCGGAUGCAGAGACGGCAGCCUUCGGUGGCGAGAUAGCGCCAACGUUCUGAACUAUGACACGCAAAACGCGUACUCCGUUGAAUGCAGUUUAUUAUG, which “polymerase ribozyme fitness (log ratio)” value is on record?
**A.** ≤ -4.2

**Q.** Which “polymerase ribozyme fitness (log ratio)” value does the source give for GGAUCUUCUCGAUCUAACAAAAAAGACAAAUCUGCCACAAAGCUUCAGAGCAUCUUCGGAUGCAGAGGCGGCAGCCUUCGGUGCCGCGUUAGCGCCAACGUUCUCAACUAUGACACGCAAAACGCGUGCUCCGUUGAAUGGAGUUUAUCAUG here?
**A.** ≤ -4.2

**Q.** Which “polymerase ribozyme fitness (log ratio)” value does the source give for GGAUCUUCUCGAUCUAACAAAAAAGACAAAUCUGCCACAAAGCUUCAGCGCAUCUUCGGAUGCAGAGGCGGCCGCCUUCGGUGGCGCGAUAGCGCGAAGGUUCUCAACUAUGACACGCAAAACUCGUGCUCCGUUGAAUGGAGUUUAUCAUG here?
**A.** ≤ -4.2

**Q.** Which “polymerase ribozyme fitness (log ratio)” value does the source give for GGAUCUUCUCGAUCUAACAAAAAAGACAAAUCUGCCACAAAGCUUAAGAGCAUCUUCGGAUGCAGAGGCGCCAGCCUUCGGUGGCGCGAUAUCGCCAACGUUCUCAACUAUGACACACAAAACGGGUGCUCCGUUGAAUGGAGUUUAUCAUG here?
**A.** ≤ -4.2

**Q.** With GGAUCUUCUCGAUCUAACAAAAAAGACAAAUCUGCCACAAAGCUUAAGAGCAUCUUCGGAUCCAGAGGCGGCAGCCUUCGGUGGUGCGAUAGUGCCAACGUUCUAAACUAUGGCACGCAAAACGCGCGCUCCGUUGAAUGGAGUUUAUCAUG as the variant, how does the “polymerase ribozyme fitness (log ratio)” value read?
**A.** ≤ -4.2

**Q.** Which “polymerase ribozyme fitness (log ratio)” value does the source give for GGAUCUUCUCGAUCUAACAAAAAAGACAAAUCUGCCACAAAGCUUCAGAGCAUCUUCGCAUGCAGAGGCGGCAGCCUUCGGUGGCGCGAUGGCGCCAACGUUCGCAACCAUGACACGUAAAACGCGUGCUCCGUUGAAUGAAGUUUAUCAUG here?
**A.** ≤ -4.2

**Q.** For GGAUCUUCUCGAUCUAACAAAAAAGACAAAUCUGCCACAAAGCUUAACAGCAUCUUCGGAUGCAGAGGCGGCAGCCUUCGGUGUCGCGAUAGCGCCAACGUUCUCAACUAUGACACGCAAAACGAGUGCUCCGUCGAAUGGAGUUUAUCAUG, which “polymerase ribozyme fitness (log ratio)” value is on record?
**A.** ≤ -4.2

**Q.** With GGAUCUUCUCGAUCUAACAAAAAAGACAAAUCUGCCACAAAGCUUCAGAGCAUCAUAGGAUGUAGAGGCGGCGGCCUUCGGUGUCGCGAUAGGGCCAACGUUCUCAACUAUGAAACGCAAAAGGCGUGCUCCGUUGAAUGGAGUUUAUCAUG as the variant, how does the “polymerase ribozyme fitness (log ratio)” value read?
**A.** ≤ -4.2

**Q.** For GGAUCUUCUCGAUCUAACAAAAAAGACAAAUCUGCCACAAAGCUUCAGAGCAUCUUCUGAUGCAGAGGCGGCAGCCUUCGGUGGCGCGAUUGCGCCAACGUUCUCAACUAUGACACGCAAAACGCGUGCCCCGUUGAAUGGAGUUAAUCAUG, which “polymerase ribozyme fitness (log ratio)” value is on record?
**A.** ≤ -4.2

**Q.** For GGAUCUUCUCGAUCUAACAAAAAAGACAAAUCUGCCACAAAGCUUAAAAGCAUCUUCGGAUGCAGAGGCGGCAGCCUUCGGUGGCGCGAUGGCGCUAACGUUCUCAACUAUGACACGCAAAACGCGUGCUCCGUUGAAUGGAGUUUAUCAUG, which “polymerase ribozyme fitness (log ratio)” value is on record?
**A.** ≤ -4.2

**Q.** Which “polymerase ribozyme fitness (log ratio)” value does the source give for GGAUCUUCUCGAUCUAACAAAAAAGACAAAUCUGCCACAAAGCUUCAGAGCAUCUUCGGAUGCAGAGGCGGCAGCAUUCGGUGGGGCGAGAGCGCCAACGUUCUCAACUAUGACACGCAAUACGCGUGCUCCGUUGAAUGGAGUUUAUCAUG here?
**A.** ≤ -4.2

**Q.** With GGAUCUUCUCGAUCUAACAAAAAAGACAAAUCUGCCACAAAGCUUCAGAGCAUCUUCGGAUGCAGAGGCGGCAGCCUUCGGUGGCGAGAUAGCGCCAACGUUCUCAACUAUGACAGGCUAAACACGUGCUCCGUUGAAUGGAGUUUAUCAUG as the variant, how does the “polymerase ribozyme fitness (log ratio)” value read?
**A.** ≤ -4.2

**Q.** Which “polymerase ribozyme fitness (log ratio)” value does the source give for GGAUCUUCUCGAUCUAACAAAAAAGACAAAUCUGCCACAAAGCUUAAGAGCAUCUUCGGAUGCAGAGGCGGCAGCCUUCGGUGGCGCUAUAGCGCCAACGUUCUCAACUAUGACACGCAAAACGCGUGCGCCGUUGAAUGUAGUUUAUCAUG here?
**A.** ≤ -4.2

**Q.** Which “polymerase ribozyme fitness (log ratio)” value does the source give for GGAUCUUCUCGAUCUAACAAAAAAGACAAAUCUGCCACAAAGCUUCAGAGCCUCUUCGGAUGCCGAGGCGGCAGCCUUCGGUGGCGCGAUAGGGCCAACGUUCUCAACUAUGACACGCAAAACGCGUGCUCCGUUGAAUGGAGUUUAUCAUG here?
**A.** ≤ -4.2

**Q.** Which “polymerase ribozyme fitness (log ratio)” value does the source give for GGAUCUUCUCGAUCUAACAAAAAAGACAAAUCUGCCACAAAGCUUAAGAGCAUCUUCGGAUGCAGAGGCGGCGGCCUUCGGUGGCGUGAUAGUGCCAACGUUCUCAACUAUGACACGCAAAACGCGUGCUCCGUUGAAUGGAGUUUAUCAUG here?
**A.** ≤ -4.2

**Q.** For GGAUCUUCUCGAUCUAACAAAAAAGACAAAUCUGCCACAAAGCUUUGGAGCAUCUUCGGAUGCAGAGGCGGCAGCCUUCGGUGGCGCGUUAGCGCCAACGGUCUCAACUAUGACACGCAAAACGCGUGCUCCGUUGAAUGGAGUUUAUCAUG, which “polymerase ribozyme fitness (log ratio)” value is on record?
**A.** ≤ -4.2
